Data from the supplement of paper PMC7125110.
± gives the standard error. Variants at the background level are over-represented here.

B1: glmS ribozyme (parent)
chain: AUAAAAGCGCCAGAACUACAGAAAUGUAGUUGACGAGGAGGAGGUUUAUCGAAUUUUCGGCGGAUGCCUCCAAA

Legend:
Conditions in all cases: with glucosamine-6-phosphate
[1] = variants of: B1; experiment: self-cleavage kobs at 40 uM GlcN6P; higher = faster cleavage; RNA array
Summary of the method: (§1)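 Barcoded ribozyme variants, transcribed in situ by E. coli RNA polymerase on sequenced MiSeq chips, were followed via a hybridised Cy3 probe at 37 °C. Glucosamine-6-phosphate ranged from 40 μM to 10 mM in HEPES/KCl/Mg(OAc)2 buffer. kobs came from decay fits to per-tile medians, and kcat and KM from weighted Michaelis–Menten fits.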

[2] = variants of: B1; experiment: self-cleavage kobs at 10000 uM GlcN6P; higher = faster cleavage; RNA array
Summary of the method: as §1

[3] = variants of: B1; experiment: self-cleavage kobs at 640 uM GlcN6P; higher = faster cleavage; RNA array
Summary of the method: as §1

[4] = variants of: B1; experiment: self-cleavage kobs at 160 uM GlcN6P; higher = faster cleavage; RNA array
Summary of the method: as §1

[5] = variants of: B1; experiment: self-cleavage kobs at 2500 uM GlcN6P; higher = faster cleavage; RNA array
Summary of the method: as §1

Variant	self-cleavage kobs at 40 uM GlcN6P [1] [s⁻¹]	self-cleavage kobs at 10000 uM GlcN6P [2] [s⁻¹]	self-cleavage kobs at 640 uM GlcN6P [3] [s⁻¹]	self-cleavage kobs at 160 uM GlcN6P [4] [s⁻¹]	self-cleavage kobs at 2500 uM GlcN6P [5] [s⁻¹]
A33G A36U G60C	< 1e-05	< 1e-05	–	–	–
A33G A36U U46C G63A A64G	< 1e-05	< 1e-05	–	–	–
A33G A39U G41C	< 1e-05	< 1e-05	–	–	–
A33G A42G	< 1e-05	< 1e-05	< 1e-05	< 1e-05	< 1e-05
A33G A48G	< 1e-05	< 1e-05	< 1e-05	< 1e-05	< 1e-05
A33G C58A U65A	< 1e-05	< 1e-05	–	–	–
A33G G59U	< 1e-05	< 1e-05	< 1e-05	–	–
A33G G60A	< 1e-05	< 1e-05	–	–	< 1e-05
A33G U65C	< 1e-05	< 1e-05	< 1e-05	< 1e-05	–
A33U A42C	< 1e-05	< 1e-05	< 1e-05	< 1e-05	< 1e-05
A33U C67G	< 1e-05	–	< 1e-05	< 1e-05	–
A33U C71G	< 1e-05	–	–	–	–
A33U G43C U56A G59C	< 1e-05	–	–	–	–
A33U U56A	< 1e-05	–	–	< 1e-05	–
A33U U57A G62U	< 1e-05	< 1e-05	–	–	< 1e-05
C34A A36G A39C	< 1e-05	< 1e-05	–	–	< 1e-05
C34A C58G	< 1e-05	< 1e-05	< 1e-05	< 1e-05	< 1e-05
C34A G37A	< 1e-05	< 1e-05	–	–	–
C34A U56G G59A	< 1e-05	< 1e-05	–	–	–
C34G A36C	< 1e-05	< 1e-05	< 1e-05	< 1e-05	–
C34G C50A A53G C71U	< 1e-05	–	–	–	–
C34G U45G	< 1e-05	< 1e-05	< 1e-05	< 1e-05	–

Variant	self-cleavage kobs at 40 uM GlcN6P [1] [s⁻¹]	self-cleavage kobs at 10000 uM GlcN6P [2] [s⁻¹]	self-cleavage kobs at 640 uM GlcN6P [3] [s⁻¹]	self-cleavage kobs at 160 uM GlcN6P [4] [s⁻¹]	self-cleavage kobs at 2500 uM GlcN6P [5] [s⁻¹]
C34U A36G U45G	< 1e-05	< 1e-05	< 1e-05	–	< 1e-05
C34U A52G	< 1e-05	< 1e-05	–	< 1e-05	–
C34U C58G C68U	0.000265 ± 9.2e-05	–	–	–	–
C34U G35U	< 1e-05	–	–	–	–
C34U G60U	< 1e-05	< 1e-05	< 1e-05	< 1e-05	< 1e-05
G35A A39G G44U	< 1e-05	–	< 1e-05	–	< 1e-05
G35A A53U	< 1e-05	< 1e-05	< 1e-05	< 1e-05	–
G35A C61G	< 1e-05	< 1e-05	< 1e-05	–	< 1e-05
G35A C71U	< 1e-05	< 1e-05	< 1e-05	< 1e-05	< 1e-05
G35A G41U	< 1e-05	< 1e-05	< 1e-05	< 1e-05	< 1e-05
G35A G63U	< 1e-05	< 1e-05	< 1e-05	< 1e-05	< 1e-05
G35A G66A	< 1e-05	< 1e-05	–	–	–
G35C A48G A52C C70G	< 1e-05	–	–	–	–
G35C G37C G51U	< 1e-05	–	–	–	–
G35C G38U C71G	< 1e-05	–	–	–	–
G35C G41A U55A	< 1e-05	–	–	–	–
G35C G43U U47G G59C A64U C67U	< 1e-05	< 1e-05	–	–	–
G35C G59U	< 1e-05	< 1e-05	< 1e-05	< 1e-05	< 1e-05
G35C U45C	< 1e-05	–	< 1e-05	< 1e-05	< 1e-05
G35C U47C C50A	< 1e-05	< 1e-05	–	–	–
G35C U54A	< 1e-05	< 1e-05	< 1e-05	–	< 1e-05
G35U C58A	< 1e-05	< 1e-05	< 1e-05	< 1e-05	< 1e-05
